Laboratory results reported in PubChem BioAssay (NCI).
Where “and” joins values, the source holds several entries; their conditions need not be identical. Equal values may be shown once.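 Values below derive from 48-hour exposures of cells grown in 96-well plates, with endpoints linearly interpolated between the two concentrations bracketing the appropriate inhibition level. GI50: concentration for 50% inhibition of growth. TGI denotes the concentration required for complete inhibition of growth.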

test system: NCI-H322M lung; experiment: NCI tumour cell line growth inhibition, 48 h

Structure (SMILES)	GI50	TGI
NNc1ncnc2nc[nH]c12	2.26 µM	> 56.1 µM
Nc1c(C(=O)Nc2ccccn2)sc2nc3c(cc12)C(=O)CCC3	9.18 µM	> 100 µM
CC(C)C1=CC23CCC4C(C)(C(=O)O)CCCC4(C)C2CC1C1C(=O)N(CCCCCCN2C(=O)C4C5CC6C7(C)CCCC(C)(C(=O)O)C7CCC6(C=C5C(C)C)C4C2=O)C(=O)C13 (stereo not given)	–	22.4 µM
CNc1cc2oc(=O)cc(C)c2cc1C	–	> 100 µM
CC[C@]1(O)C[C@H]2CN(CCc3c([nH]c4ccccc34)C(C(=O)OC)(c3cc4c(cc3OC)N(C)[C@H]3[C@@](O)(C(=O)OC)[C@H](OC(C)=O)[C@]5(CC)[C@@H]6C[C@@H]6CN6CC[C@]43[C@@H]65)C2)C1 (stereo not given in full)	0.00509 µM	8.32 µM
O=C(CC(=O)Nc1ccccc1)NNC(Sc1ccccc1)c1cc(N=Nc2ccc(Br)cc2)ccc1O (stereo not given)	–	> 10 µM
O=C1CSC2(CC(/C=C/c3cccs3)=NN2c2cccc(S(=O)(=O)O)c2)N1c1nc2ccccc2s1 (stereo not given)	–	> 100 µM
N#Cc1sc2c(c1OC(=O)c1ccc(C(F)(F)F)cc1)c(=O)n(-c1ccccc1)c(=S)n2-c1ccccc1	–	> 100 µM
CCOc1c(OC)cc(-c2nc3n(n2)C(=O)C(CC)S3)cc1OC (stereo not given)	–	> 10 µM
Oc1oc(C(=C2N=c3ccccc3=N2)c2ccc(Cl)cc2)c(O)c1-c1ccc(Cl)cc1	–	> 100 µM
Cc1cc(C[C@H]2O[C@@H]3OC(C)(C)O[C@@H]3[C@H]3OC(C)(C)O[C@H]32)c2ccccc2n1	–	> 100 µM
Cc1nc2sccn2c1-c1nc2sccn2c1/C=C1/C(=O)Nc2ccccc21	19 µM	> 100 µM
CC(C)Oc1cccc(N2C(=NCc3c[nH]c4ccccc34)Nc3ccncc3S2(=O)=O)c1	–	> 100 µM
Cc1ccsc1/C=N/Nc1cnccn1	–	> 100 µM
O=c1c2c(no[n+]2[O-])c2ccccc2n1-c1ccccc1	–	31.8 µM
O=C(CCSC1=NCCCN1)c1ccc(F)cc1	–	34.6 µM
OC(c1cc2cc(Cl)ccc2c2cc(C(F)(F)F)ccc12)C1CCCCN1 (stereo not given)	1.79 µM	3.33 µM
O=C(CNc1ccc(Cl)cc1Cl)Nn1c(-c2ccccc2)nc2ccccc2c1=O	–	29.1 µM
C/C1=C\[C@H](C)C[C@H](C)OC(=O)[C@H](C)NC(=O)[C@@H](Cc2ccc(O)c(Br)c2)N(C)C(=O)[C@H](C)NC(=O)[C@@H](C)C1	–	> 22.9 µM
Cc1cc2c(cc1C)[n+](=O)cc(C(=O)C/C(=N/NC(=S)NN)C(=O)Nc1cccc(C(F)(F)F)c1)n2[O-]	–	> 100 µM
CSC[C@H](NC(=O)COc1cccc2cnccc12)C(=O)NC(Cc1ccccc1)C(O)C(=O)N1CSC[C@H]1C(=O)NC(C)(C)C (stereo not given in full)	–	> 100 µM
CCOC(=O)Cc1csc(Nc2ccccc2[N+](=O)[O-])n1	–	> 100 µM
Clc1sc(Cl)c2c1[C@@H](Cl)C[C@@H]2Br	–	> 100 µM
O=C1C(=Nc2ccc(Nc3ccccc3)cc2)Oc2ccccc21	–	18.4 µM

Structure (SMILES)	GI50	TGI
C=C(CN(C)C)C(=O)c1ccc(C(=O)C(=C)CN(C)C)cc1	–	> 100 µM
Cc1nc2c(N)ncnc2o1	–	> 100 µM
Cc1nc2c(Br)cc(Br)cc2c(=O)n1-c1nnc(-c2cccc(Cl)c2Cl)c(N)n1	14.7 µM	41.7 µM
CSc1csc(-c2ccc(-c3ccc(-c4cc(SC)cs4)s3)s2)c1	–	> 100 µM
FC(F)(F)c1ccc2nc(NCc3ccccc3)c(-c3ccccc3)nc2c1	–	> 100 µM
O=C(NN1C(=O)CS(=O)(=O)C1c1ccc(C(F)(F)F)cc1)c1ccncc1 (stereo not given)	–	> 100 µM
CO[C@@H]1CC[C@]2(C)OC[C@H](C)[C@@H]3C[C@@H](C)[C@@H](OC(C)=O)[C@@H]4[C@H]3[C@@H]2O[C@H]4C[C@@]1(C)O	> 100 µM	> 100 µM
CC1OC(O[C@H]2C3C=CO[C@@H](OC4OC(CO)C(O)C(O)C4O)C3[C@@]3(COC(=O)/C=C/c4ccccc4)O[C@@H]23)C(O)C(O)C1O (stereo not given in full)	–	> 100 µM
C=C1C(=O)[C@@]23CC[C@@H]4[C@@]5(C)CCC[C@@]4(OC5=O)[C@@]2(C)CC[C@@H]1C3	–	17.2 µM
O=C(c1ccccc1)c1ccc2c(c1)NC(=O)c1ccccc1SSc1ccccc1C(=O)N2	–	> 100 µM
O=C(O)C(O)C(O)C(O)C(O)CO (stereo not given)	–	> 100 µM
CCCCCCCCc1cc2c(O)c(c1)Cc1cc(CCCCCCCC)cc(c1O)Cc1cc(CCCCCCCC)cc(c1O)Cc1cc(CCCCCCCC)cc(c1O)Cc1cc(CCCCCCCC)cc(c1O)Cc1cc(CCCCCCCC)cc(c1O)C2	–	> 100 µM
NC(=O)c1cc(I)ccc1NC(=O)/C=C/c1ccccc1	0.952 µM	> 100 µM
COC(=O)c1c2c(c(C)[n+]([O-])c1C)C(=O)C(NCc1ccc(Br)cc1)=CC2=O	2.01 µM	6.67 µM
CC1=C(C#N)c2nc3ccccc3n2C(=O)C1(C)CCO (stereo not given)	–	> 100 µM
[N-]=[N+]=NC1(c2ccccc2)C(=O)c2cccc3c2N(CCC3)C1=O (stereo not given)	–	> 100 µM
N#CC(I)CS(=O)(=O)c1ccccc1 (stereo not given)	> 100 µM	> 100 µM
CCOc1ccc(OCC(=O)O)c2c1CCCC2=O	–	> 100 µM
CN(Cc1cnc2nc(N)nc(N)c2n1)c1ccc(C(=O)N[C@@H](CCS(=O)(=O)O)C(=O)O)cc1	–	> 100 µM
[N-]=[N+]=CC(=O)OC(CCl)CCl	–	> 100 µM
O=C(OCC(Cl)(Cl)Cl)N1CC[C@H](C2CCCCC2)C1	–	35.4 µM
Cc1ccnc(NC(=S)Nc2ccc([N+](=O)[O-])cc2)c1	–	> 100 µM
COC(=N)c1csc(C2OC(CO)C(O)C2O)n1 (stereo not given)	–	> 100 µM
CN(C)Cc1cc(C(=O)/C=C/c2ccc([N+](=O)[O-])cc2)cc(CN(C)C)c1O	–	15.9 µM

Structure (SMILES)	GI50	TGI
CC(C)C1CN(C(=O)OCc2ccccc2)C2N1C(=O)C2(C)OCc1ccccc1 (stereo not given)	–	> 100 µM
O=[N+]([O-])c1ccccc1N=Nc1c(O)[nH]c2c(Cl)cc(Cl)cc12	–	> 100 µM
CCN(CC)c1ccc(/C=C/c2ccnc3ccccc23)cc1	–	> 100 µM
CSc1nc2c(c(N(C)C)n1)C(O)n1c(nc3ccccc31)S2 (stereo not given)	–	> 100 µM
O=C(Nc1ncc(Cc2cccc(C(F)(F)F)c2)s1)c1ccc2c(c1)OCCO2	0.764 µM	> 100 µM
Cc1cccc(NC2=C(Cl)C(=O)c3nc(C)ccc3C2=O)c1	2.32 µM	7.37 µM
O=C(CN1C(=O)CC(c2ccccc2)(c2ccccc2)C1=O)N1CCN(CCO)CC1	–	> 100 µM
c1ccc2c(c1)CCc1c(-c3ccncc3)n[nH]c1-2	–	> 100 µM
CCOc1ccc(NC(=O)CC2SC(=Nc3ccc(C)cc3C)NC2=O)cc1 (stereo not given)	–	> 100 µM
C[C@@H]1CCC2[C@@H](C)[C@@H](O[C@H]3O[C@@H]4O[C@@]5(C)CCC6[C@H](C)CCC([C@H]3C)[C@]64OO5)O[C@@H]3O[C@@]4(C)CCC1[C@@]23OO4 (stereo not given in full)	–	> 25 µM
CCCCCCCC(=O)OCC1OC(n2cc(F)c(=O)[nH]c2=O)C(N)C(OC(=O)CCCCCCC)C1O (stereo not given)	–	33.2 µM
O=C(c1ccc([N+](=O)[O-])cc1[N+](=O)[O-])N(/N=C/C=C/c1ccccc1)c1nnc(-c2ccccc2)c(-c2ccccc2)n1	–	> 100 µM
O=C1C/C(Br)=C\c2ccccc2-c2ccccc21	–	13 µM
COc1cccc2c1OC(c1cccc3ccccc13)C([N+](=O)[O-])=C2 (stereo not given)	–	4.3 µM
C[C@H](CCOc1cccc(CC(=O)O)c1)N(Cc1cccc(C(F)(F)F)c1Cl)CC(c1ccccc1)c1ccccc1	6.72 µM	19.6 µM
NCCCn1c2c(c3ccc([N+](=O)[O-])cc3c1=O)C(=O)c1cc(I)ccc1-2	0.709 µM	2.29 µM
COc1ccc(/C=N/NC(=O)c2ccc(O)c(CN(C)C)c2)cc1	–	> 100 µM
CCCCCCCCCCCC[N+]12CC[N+](CCN)(CC1)CC2	–	> 100 µM
CCOC(=O)c1c(C)c2c(n1Cc1ccccc1)CSCC2=O	36.5 µM	> 100 µM
O=C1NC(O)CCN1C1OC(CO)C(O)C1O (stereo not given)	–	> 250 µM
CCN(Cc1c(F)cccc1OC)c1ccc(CO)c(Cl)c1	3.81 µM	22.1 µM
COc1ccc(-c2nc3ccccc3c(=S)n2OC(C)=O)cc1	–	> 25 µM
CCOC(=O)/C(C(C)=O)=C(\OC(C)=O)c1ccncc1C(=O)O	–	> 100 µM
CCN(CCNS(C)(=O)=O)c1ccc(N)c(C)c1	35.1 µM	> 100 µM

Structure (SMILES)	GI50	TGI
CCN(C(=O)N[C@@H](C)C(=O)N[C@@H](Cc1ccccc1)C(=O)OC)c1ccccc1	–	> 100 µM
CC1(C)C=CC(=O)C(O)C(C)(C)C1=O (stereo not given)	–	> 100 µM
CN(C)CCN1CCC(Cc2ccccc2)CC1	> 80 µM	> 80 µM
CCCCOCCOC1=C(Cl)C(=O)c2c(O)ccc(O)c2C1=O	–	3.21 µM
N#CC(c1ccccc1)N(CCOCCOCCN(C(=O)c1ccccc1)C(C#N)c1ccccc1)C(=O)c1ccccc1 (stereo not given)	–	> 100 µM
O=C(O)c1cccc(S(=O)(=O)NN2C(=O)CSC2c2ccc(Cl)cc2Cl)c1 (stereo not given)	–	> 100 µM
CCOC(=O)CC/C(=N/Nc1ccc(Cl)cc1[N+](=O)[O-])C(=O)OCC	–	> 100 µM
COc1ccc(NC(=O)CSc2nnc(-c3ccc(NC(C)=O)cc3)o2)cc1	–	30.2 µM
O=C1/C(=C/c2ccc(Cl)cc2)CCCc2ccccc21	–	48 µM
O=C(O)c1ccc(CNCc2ccccc2)cc1	–	> 100 µM
CCCCNCCCNCCCNC(=O)c1csc(-c2csc(CCNC(=O)C(NC(=O)C(C)C(O)C(C)NC(=O)C(NC(=O)c3nc(C(CC(N)=O)NCC(N)C(N)=O)nc(N)c3C)C(OC3OC(CO)C(O)C(O)C3OC3OC(CO)C(O)C(OC(N)=O)C3O)c3cnc[nH]3)C(C)O)n2)n1 (stereo not given)	22.6 µM	> 100 µM
Nc1ncnc2c1ccn2C/C=C/CO	–	> 100 µM
COc1cc(OC)c(OC)cc1/C=N/NC(=O)N/N=C/c1cc(OC)c(OC)cc1OC	–	> 100 µM
C[N+](C)(C)CC(=O)N/N=C(/Cc1cc(=O)oc2cc(O)ccc12)C(=O)Nc1ccc(Cl)cc1	–	> 100 µM
CCn1cc(-c2ccnc3[nH]c(-c4cccc(CN(C)C)c4)cc23)c(-c2ccc(NC(=O)N(C)C)cc2)n1	8.19 µM and 4.37 µM	23.4 µM and > 10 µM
COC(=O)c1ccccc1CC1Cc2cccc(C)c2C1=O (stereo not given)	–	> 100 µM
c1ccc(C2=NOC(c3ccccc3)N2C23CC4CC(CC(C4)C2)C3)cc1 (stereo not given)	–	> 10 µM
COc1cc2c(cc1OCCCN1CCN(CCCOc3cc4c(cc3OC)C(=O)N3CC(F)(F)C[C@H]3C=N4)CC1)N=C[C@@H]1CC(F)(F)CN1C2=O	19.6 µM	75.2 µM
COC1OC2COC(c3ccccc3)OC2C(O)C1OC(=S)c1ccccc1 (stereo not given)	–	> 100 µM
COC(=O)C1=CN(CC2=CC(=O)C(C)=CC2=O)C=C(C(=O)OC)C1c1ccccc1OC	43.9 µM	> 82.1 µM
Cc1cc(N(C)C)c2ccccc2[n+]1CCCCCCCCCC[n+]1c(C)cc(N(C)C)c2ccccc21	–	15.6 µM
